Hit rate of the full screen: of about 350,000 compounds, about 9,900 (2.8%) were called active. This list was built around the results that the source calls inconclusive (neither active nor inactive); the mix of calls is not that of the screen. Calls follow the shape of the dose curve; as a rule, active = well fitted activation curve with a large enough effect; inconclusive = small, poorly fitted or top-dose-only effect; inactive = no such curve, though single readings can be large or run the other way. No potency is given beside an inconclusive call; the fits are too rough.
Test: A quantitative high throughput screen for small molecules that induce DNA re-replication in MCF 10a normal breast cells. Also: nearly all actives have a fitted effect of over 50% in size. As to activity, positive = re-replication: % of control where 0% means no effect.
Settings: MCF 10A DNA re-replication, Hoechst nuclear intensity, 48 h; activity, positive = re-replication: at 46.1 µM (top of the series)
Potency is read from the fitted curve at half-maximal effect; tags tell the direction and shape of the fitted curve.

Compound | Potency | activity, positive = re-replication
Cc1ccc(S(=O)(=O)N2CCC3CC2c2cc(Cl)ccc23)cc1 (stereo unspecified) | inconclusive [activator, single point] | –
Cn1ncc(Cl)c1C(=O)N1CCN(S(=O)(=O)c2cccs2)CC1 | inactive | –
Cc1ccc(C2=CC(c3ccccc3)n3ncnc3N2)cc1 (stereo unspecified) | inactive | –
CCOC(=O)c1ccc(Nc2cc(C)nc(-c3ccccc3O)n2)cc1 | inactive | –
N#Cc1ccc(C23CC4(C2)[C@H](CN(Cc2ccc(-c5ccccc5)cc2)[C@@H]4c2ccccc2)C3c2ccccc2)cc1 (stereo partly specified) | inconclusive [activator, single point] | –
COc1ccc(/C=C2\SC(=Nc3ccccc3OC)NC2=O)cc1 | active: 3.26 µM | –
CSC(=NC(C)c1ccccc1)NS(=O)(=O)c1cccs1 (stereo unspecified) | inactive | –
CCOC(=O)c1c(C)[nH]c(-c2csc(C)n2)c1C | inactive | –
O=C(CNS(=O)(=O)c1ccc(F)c(Cl)c1)N1CCCCCC1 | inactive | –
CCCCNS(=O)(=O)c1ccc2nc(SCC(=O)c3ccc(C#N)cc3)[nH]c2c1 | inconclusive [activator, single point] | –
CN(C)c1ccc(CNCCC(Cc2ccccc2)c2ccco2)cc1 (stereo unspecified) | inconclusive [activator, single point] | –
COCCn1c(=O)[nH]c2cc(C(=O)N3CCN(c4ccccc4OC)CC3)ccc2c1=O | inactive | –
CC[C@@]1(C(=O)OC)N[C@H](CN(C)C(C)=O)[C@@H]2C(=O)N(C)C(=O)[C@@H]21 | inconclusive [activator, partial curve, poor fit] | –
CCC(C)(C(=O)NC1CCCC1)N(CC1CCCO1)C(=O)c1ccc2c(c1)OCO2 (stereo unspecified) | – | inactive: 35.5% [at 0.0737 µM]
NCC12CC3CC(C1)CC(c1ccc(Cl)cc1)(C3)C2 | inconclusive [activator, partial curve, poor fit] | –
COc1ccc(CN(C)C(=O)c2cccc(C(=O)N(C)Cc3ccc(OC)cc3)c2)cc1 | inactive | –
Cc1cccc(C#N)c1NC1=CC(=O)CC(C)(C)C1 | inactive | –
COc1ccccc1CNC(=O)/C=C/c1ccc(S(=O)(=O)NCc2ccco2)cc1 | inconclusive [activator, partial curve, poor fit] | –
C[N+]1(CC(O)COCC2COc3ccccc3O2)CCOCC1 (stereo unspecified) | inconclusive [activator, single point] | –
O=C(c1ccc(S(=O)(=O)c2ccc(F)cc2)c([N+](=O)[O-])c1)N1CCCCCC1 | inconclusive [activator, single point] | –
CC(=O)Nc1nc2cc3c(cc2s1)OCO3 | inconclusive [activator, partial curve, poor fit] | –
COc1ccc(-c2nc(CS(=O)CC(=O)NCc3ccco3)c(C)o2)cc1OC (stereo unspecified) | inconclusive [activator, partial curve, poor fit] | –
CCc1cccc(NC(=O)C2CCN(c3ncnc4sc(C)c(C)c34)CC2)c1 | inconclusive [activator, partial curve, poor fit] | –

Compound | Potency | activity, positive = re-replication
Cc1c(/C=C(\CC(=O)O)c2nc3ccccc3s2)cc(C#N)n1C | inconclusive [activator, partial curve, poor fit] | –
COc1ccc(OC)c(S(=O)(=O)NCc2cn3ccsc3n2)c1 | – | inconclusive: 95.4% [activator]
Cc1cc(/C=N/NC(=O)c2cccc([N+](=O)[O-])c2)c(C)n1-c1ccc(Cl)cc1Cl | inconclusive [activator, partial curve, poor fit] | –
CCOCC(=O)Nc1nc2ccc(C)cc2s1 | inconclusive [activator, partial curve, poor fit] | –
O=c1c2ccccc2nc(/C=C/c2ccc(Br)cc2)n1CCCO | inconclusive [activator, partial curve, poor fit] | –
COC(=O)CSc1ccc(C#N)c(SCC(=O)OC)c1 | inactive | –
CCOC(=O)c1c(C)nc2sc3c(c2c1-c1ccc(OC)cc1)NC(c1ccccc1)NC3=O (stereo unspecified) | inconclusive [activator, partial curve, poor fit] | –
Cc1ccc(-c2csc(Cc3nc(-c4cc5ccccc5oc4=O)cs3)n2)cc1 | inactive | –
CCOC(=O)c1c(-c2ccc(OC)cc2)csc1NC(=O)CSc1ccccc1 | active: 7.31 µM | –
N/C(Cc1cccc2ccccc12)=N\OC(=O)c1ccccc1F | inactive | –
CCCC(=O)N1CCN(c2nc(CC(C)C)c3c(c2C#N)CCC3)CC1 | inconclusive [activator, single point] | –
COc1ccc(OCC(=O)NNC(=S)NC(=O)c2ccc(Br)o2)cc1 | inconclusive [activator, partial curve, poor fit] | –
CCOc1ccc2nc(NC3=NC(C)(C)C=C(C)N3)nc(C)c2c1 | inactive | –
CC(C)COC(=O)N1CCCC1C(=O)O (stereo unspecified) | active: 6.51 µM | –
Cc1ccc(CNC(=O)C2CC(c3cccc([N+](=O)[O-])c3)=NO2)cc1 (stereo unspecified) | active: 2.06 µM | –
O=C(Nc1cccc(Br)c1)c1cc(=O)c2ccccc2o1 | inconclusive [activator, single point] | –
Cc1ccc2sc(-c3ccc(NC(=O)c4cc(-n5cnnc5)ccc4Cl)cc3)nc2c1 | active: 2.59 µM | –
O=C(OCC(=O)N1CCCC1)c1ccc(S(=O)(=O)N2CCOCC2)cc1 | inactive | –
CCCCCc1ccc(-c2cn(Cc3cccc(OC)c3)nn2)cc1 | inconclusive [activator, single point] | –
COc1ccc(-c2cc(C(F)(F)F)n3nc(C(=O)N4CCCC4)cc3n2)cc1 | inactive | –
N#Cc1cccnc1N1CCN(C(=O)c2cccs2)CC1 | inactive | –
Cc1nn(Cc2ccccc2)c(C)c1/C=N/NC(=O)CNc1cccc(C(F)(F)F)c1 | inconclusive [activator, single point] | –
Cc1cccc(C)c1NC(=O)CN(C)C(=O)C1CC(=O)N(c2cccc3ccccc23)C1 (stereo unspecified) | inactive | –

From PubChem BioAssay AID624296 (National Center for Advancing Translational Sciences (NCATS), 2012)
